Laboratory results from PubChem BioAssay AID686970 (National Center for Advancing Translational Sciences (NCATS), 2013).
The whole screen tested about 360,000 compounds, of which about 6,000 (1.7%) were called active. Inconclusive means that the source gave no clear call. Such entries were picked first, then a sample of the others. Calls follow the shape of the dose curve; as a rule, active = well fitted cell-killing curve with a large enough effect; inconclusive = small, poorly fitted or top-dose-only effect, or effect the other way; inactive = flat fitted curve, though single readings scatter. Potencies of inconclusive entries are left out as doubtful fits.

Experiment: qHTS for induction of synthetic lethality in tumor cells producing 2HG: qHTS for the HT-1080-NT fibrosarcoma cell line;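 also: NT is the 2HG producing partner of a matched IDH1 knockdown line; nearly all actives have a fitted effect of over 55% in size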;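 as to activity, negative = less viability: 0% = DMSO-treated cells and -100% = media-only wells without cells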
Conditions: HT-1080-NT fibrosarcoma viability, CellTiter-Glo ATP luminescence, 48 h; activity, negative = less viability: at 46.1 µM (top of the series) unless noted
Outline: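 A 48-hour cytotoxicity screen used HT-1080-NT cells plated 2 hours before compound delivery. ATP-based CellTiter-Glo luminescence measured viability, normalized to DMSO and no-cell controls.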
Potency is read from the fitted curve at half-maximal effect; tags tell the direction and shape of the fitted curve.

For `COc1ccc(N2CCN(c3cc(C(=O)Nc4cc(OC)c(OC)c(OC)c4)ncn3)CC2)cc1OC`, which Potency is on record?
Its Potency is inconclusive [cytotoxic, partial curve].

With `COc1ccc(OC)c2[nH]c(=O)c(CCNC(=O)COc3ccccc3)cc12` as the compound, how does the “activity, negative = less viability” value read?
The value was inactive: 8.98%.

For `CCOc1ccc(NC(=S)NNc2ccnc3cc(Cl)ccc23)cc1`, which Potency is on record?
Its Potency is inconclusive [cytotoxic, single point].

Which Potency does the source give for `Cc1ccc(-c2nnc(-c3ccc4ccccc4c3)o2)cc1` here?
The Potency was inconclusive [cytotoxic, partial curve].

Which Potency does the source give for `CCCC1=Nc2cc(C(=O)NCCN3CCOCC3)ccc2Sc2ccc(C)cc21` here?
The Potency was inconclusive [cytotoxic, single point].

Which Potency does the source give for `CN(C)c1ccc(N/C=C/C(=O)c2ccc(F)cc2)cc1` here?
Its Potency is inconclusive [cytotoxic, single point].

Which Potency does the source give for `COc1ccc(OCC(=O)N/N=C/c2cccc3cccnc23)cc1` here?
Its Potency is inconclusive [cytotoxic, partial curve].

With `Cc1c(Cl)cccc1Nc1n[nH]c(=S)s1` as the compound, how does the “activity, negative = less viability” value read?
Its value is inactive: 14.9%.

Which Potency does the source give for `COc1ccc(C(=O)c2coc3c2C(=O)C(=O)c2ccccc2-3)cc1` here?
The Potency was inconclusive [cytotoxic, single point].

With `COc1ccc(N=Cc2c(O)cc(C)oc2=O)cc1` as the compound, how does the Potency read?
The Potency was inconclusive [cytotoxic, partial curve].

Which Potency does the source give for `Cc1ccc(NC(=O)C2(C)CCN2Cc2csc3ccccc23)cc1` (stereo not given) here?
The Potency was inconclusive [cytotoxic, single point].

With `CSc1ccccc1OCc1cc(C(=O)N(C)C2CCCc3ccccc32)no1` (stereo not given) as the compound, how does the Potency read?
The Potency was inconclusive [cytotoxic, single point].

With `Cn1cccc1/C=N/n1c(-c2ccc(C(C)(C)C)cc2)n[nH]c1=S` as the compound, how does the Potency read?
Its Potency is inconclusive [cytotoxic, single point].

For `CCc1ccc(CNC(=O)C2CCN(c3nnc(C)c4c(C)n(-c5ccc(C)cc5)nc34)CC2)cc1`, which Potency is on record?
The Potency was active: 13 µM.

Which “activity, negative = less viability” value does the source give for `CCCCCN(C(=O)CCC(=O)OCCOc1ccccc1)c1c(N)n(CCCC)c(=O)[nH]c1=O` here?
Its value is inactive: 1.35%.

With `COc1ccc2[nH]cc(CCn3ccc(=O)c(C)c3C)c2c1` as the compound, how does the “activity, negative = less viability” value read?
Its value is inactive: 11.3%.

For `Fc1cccc(Cl)c1CNc1ccc(N2CCCC2)cc1`, which Potency is on record?
The Potency was inconclusive [cytotoxic, partial curve].

Which Potency does the source give for `C=C1C(=O)[C@]23C[C@H]1CC[C@H]2[C@]1(C)[C@@H](OC(C)=O)CC[C@@](C)(C(=O)O)[C@H]1C[C@@H]3O` here?
Its Potency is active: 6.51 µM.

With `CCCc1ccc(Oc2cn[nH]c2-c2ccc(O)c(C)c2O)cc1` as the compound, how does the Potency read?
Its Potency is inconclusive [cytotoxic, single point].

Which Potency does the source give for `O=C1C(C=Nc2ccccc2O)=C(O)c2ccccc21` here?
The Potency was active: 6.31 µM.

For `O=C(NC(=S)Nn1cnnc1)c1ccc(F)cc1Cl`, which “activity, negative = less viability” value is on record?
Its value is inactive: 10.6%.

With `O=C(CCNS(=O)(=O)c1ccc(F)cc1)N1CCN(c2ncccn2)CC1` as the compound, how does the “activity, negative = less viability” value read?
Its value is inactive: -0.69%.

For `Cc1ccc(C)c(NC(=O)Cn2nnc(C(=O)NCc3cccs3)c2N)c1`, which Potency is on record?
The Potency was inconclusive [cytotoxic, single point].

With `Cc1ccc(-n2c(O)c(C=NCc3ccccn3)c3ccccc3c2=O)cc1C` as the compound, how does the “activity, negative = less viability” value read?
The value was inactive: -26%.

Which Potency does the source give for `CCOC(=O)COc1cc(Br)c(/C=N/Nc2ccccc2)cc1OC` here?
Its Potency is inconclusive [cytotoxic, partial curve].

Which Potency does the source give for `Oc1c(C=C2N=c3ccccc3=N2)sc(=S)n1C1CCCCC1` here?
The Potency was inconclusive [rising, single point].

Which Potency does the source give for `CC[C@H](C)Cc1cn([C@@H](CCCN=C(NC(=O)OC(C)(C)C)NC(=O)OC(C)(C)C)C(=O)NCCCCCCCCCCC(=O)N2CCN(C(=O)OC(C)(C)C)CC2)nn1` here?
The Potency was inconclusive [cytotoxic, single point].

Which Potency does the source give for `O=C(Nc1cccnc1)c1ccc([N+](=O)[O-])s1` here?
Its Potency is inconclusive [cytotoxic, single point].

Which Potency does the source give for `N#Cc1c(-c2ccco2)nc(SCc2ccc(F)cc2)[nH]c1=O` here?
The Potency was inconclusive [cytotoxic, single point].

Which Potency does the source give for `N#CC1CC(c2ccccc2)Nc2cc(Cl)ccc2N1` (stereo not given) here?
The Potency was inconclusive [cytotoxic, full curve, poor fit].

Which “activity, negative = less viability” value does the source give for `CC(NC(=O)C1CCN(C(=O)Nc2ccccc2)CC1)c1ccccc1` (stereo not given) here?
The value was inactive: -5.04%.

With `COc1ccc(/C=C2/C(=O)ON=C2C)cc1Br` as the compound, how does the “activity, negative = less viability” value read?
Its value is inactive: -3.53%.

With `Cc1ccnc(NC(=O)CCCOc2cc(=O)n(C)c3ccccc23)c1` as the compound, how does the Potency read?
The Potency was inconclusive [cytotoxic, single point].

With `CCOC(=O)[C@]12CCCC=C1N(Cc1ccc(Cl)cc1Cl)C(=O)[C@H](CC(=O)N1CCCC1)C2` as the compound, how does the “activity, negative = less viability” value read?
The value was inactive: 1.2%.

Which Potency does the source give for `CC1(C)CC(=O)C2=C(C1)NC1=C(C(=O)c3ccccc31)C2c1cc([N+](=O)[O-])ccc1O` (stereo not given) here?
The Potency was inconclusive [cytotoxic, partial curve].

Which Potency does the source give for `COc1cc(NC(C)CCCN)c2ncccc2c1` (stereo not given) here?
Its Potency is active: 16.4 µM.

Which Potency does the source give for `O=C(Nc1ccc2ccccc2c1)C(c1ccccc1)C1CCCC1` (stereo not given) here?
Its Potency is inconclusive [cytotoxic, partial curve].

For `CCCCNC(=S)NNC(=O)c1csc2ccccc12`, which Potency is on record?
The Potency was inconclusive [cytotoxic, single point].

Which “activity, negative = less viability” value does the source give for `COc1cc(OC)nc(Oc2cccc(C(F)(F)F)c2)n1` here?
Its value is inactive: 10.5%.

For `Cc1ccc(F)cc1NC(=O)N1CCCN(c2ccc(C(F)(F)F)cn2)CC1`, which Potency is on record?
The Potency was inconclusive [cytotoxic, single point].

With `COC1=C(N)C(=O)c2nc(-c3nc(C(=O)O)c(C)c(-c4ccc(OC)c(OC)c4O)c3N)ccc2C1=O` as the compound, how does the Potency read?
Its Potency is active: 0.0092 µM.

With `COc1ccc(NC2CCCN(C(=O)CN3CCOC3=O)C2)cc1` (stereo not given) as the compound, how does the “activity, negative = less viability” value read?
The value was inactive: 24.8%.

Which Potency does the source give for `Cc1ccc(C(=O)N2CCCN(c3nc4cc5c(cc4cc3C#N)OCO5)CC2)cc1` here?
The Potency was inconclusive [cytotoxic, single point].

With `COc1cccc(CNC(=O)CN2C(=O)CCSc3ccc(S(=O)(=O)N4CCCC4)cc32)c1` as the compound, how does the “activity, negative = less viability” value read?
Its value is inactive: -6.77%.

For `C=CCN1C(=O)/C(=C/C(=O)OC)S/C1=N\NC(=O)c1ccccc1`, which Potency is on record?
The Potency was inconclusive [cytotoxic, single point].
